We go through 15 sequences from the supplement of paper PMC7826260.

The list shows a part of the results. One pool of 16,384 single-stranded DNAs met each Rep nickase domain in vitro for 1 h at 37 °C with 3 µM enzyme; only the middle of the 90-letter strands is printed. The score is log2 (uncut reads / reads without enzyme); strong cutting gives strongly negative numbers. There is no active / inactive call. Reads are scaled to the total, so uncut sequences can rise above 0 when many others are cut.

What all share (assay): uncleaved DNA left, log2 of reads against the no-enzyme library (log2 ratio); higher = less cleavage (more negative = more Rep cleavage of the k-mer); sequences stand for … in CTCGTCCG…ACCGGAGA
Test [1] relates to T1, Rep nickase domain of Muscovy duck circovirus.
T1 sequence (residues 1-111 of Rep, tag left off): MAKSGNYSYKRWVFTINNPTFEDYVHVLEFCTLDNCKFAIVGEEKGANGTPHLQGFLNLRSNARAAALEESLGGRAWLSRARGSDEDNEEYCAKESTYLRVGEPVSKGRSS
On the procedure:
(§1)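 A pool of 90-nt single-stranded DNAs with seven random bases just before the constant AC of the nick site (name = the seven bases) was cut by 3 µM recombinant His6-SUMO-tagged Rep nickase domain (300 nM DNA, 50 mM HEPES pH 8.0, 50 mM NaCl, 1 mM MnCl2, 1 h, 37 °C, three replicates). Uncut DNA was amplified and sequenced.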

Test [2] relates to T2, Rep nickase domain of banana bunchy top virus.
T2 sequence (residues 1-94 of Rep, tag left off): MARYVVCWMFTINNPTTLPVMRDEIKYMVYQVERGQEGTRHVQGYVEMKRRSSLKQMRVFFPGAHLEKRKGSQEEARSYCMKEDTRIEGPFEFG
On the procedure:
as §1

For test [3], the system named is T3, Rep nickase domain of cabbage leaf curl virus.
T3 sequence (residues 1-116 of Rep, tag left off): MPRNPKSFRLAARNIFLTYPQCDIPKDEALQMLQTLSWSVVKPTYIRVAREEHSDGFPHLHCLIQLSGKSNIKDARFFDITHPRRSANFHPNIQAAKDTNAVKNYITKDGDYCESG
On the procedure: as §1
For test [4], the system named is T4, Rep nickase domain of chickpea chlorotic dwarf virus.
T4 sequence (residues 1-124 of Rep, tag left off): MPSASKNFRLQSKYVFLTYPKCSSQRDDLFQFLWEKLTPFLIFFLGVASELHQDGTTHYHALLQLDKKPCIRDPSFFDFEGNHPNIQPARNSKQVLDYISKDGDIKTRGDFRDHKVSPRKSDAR
The procedure:
as §1

Test [5] deals with T5, Rep nickase domain of faba bean necrotic yellows virus.
T5 sequence (residues 1-98 of Rep, tag left off): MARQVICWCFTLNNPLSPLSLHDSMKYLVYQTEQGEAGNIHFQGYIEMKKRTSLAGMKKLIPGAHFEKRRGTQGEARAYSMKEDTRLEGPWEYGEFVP
On the procedure: as §1
In test [6] the test system is T6, Rep nickase domain of maize striate mosaic virus.
T6 sequence (residues 1-117 of Rep, tag left off): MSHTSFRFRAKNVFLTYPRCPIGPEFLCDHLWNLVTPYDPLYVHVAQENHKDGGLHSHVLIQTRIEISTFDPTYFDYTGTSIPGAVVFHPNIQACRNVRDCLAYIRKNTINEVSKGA
The procedure: as §1
The subject of test [7] is T7, Rep nickase domain of porcine circovirus 2.
T7 sequence (residues 2-116 of Rep, tag left off): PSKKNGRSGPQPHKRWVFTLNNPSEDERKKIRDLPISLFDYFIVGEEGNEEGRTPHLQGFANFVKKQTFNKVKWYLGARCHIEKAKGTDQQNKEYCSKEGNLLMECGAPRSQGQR
On the procedure:
as §1

Test [8] deals with T8, Rep nickase domain of tomato golden mosaic virus.
T8 sequence (residues 1-124 of Rep, tag left off): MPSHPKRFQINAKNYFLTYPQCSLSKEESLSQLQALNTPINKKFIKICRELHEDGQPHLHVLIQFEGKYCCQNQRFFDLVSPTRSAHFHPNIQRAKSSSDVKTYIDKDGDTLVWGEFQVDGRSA
The procedure: as §1
The test system of test [9] is T9, Rep nickase domain of tomato yellow leaf curl virus.
T9 sequence (residues 1-136 of Rep, tag left off): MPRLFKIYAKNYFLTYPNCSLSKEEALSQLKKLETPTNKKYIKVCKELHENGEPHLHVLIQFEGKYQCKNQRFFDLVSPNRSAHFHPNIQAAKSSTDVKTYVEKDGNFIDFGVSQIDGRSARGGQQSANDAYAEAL
The procedure:
as §1

The test system of test [10] is T10, Rep nickase domain of wheat dwarf virus.
T10 sequence (residues 1-137 of Rep, tag left off): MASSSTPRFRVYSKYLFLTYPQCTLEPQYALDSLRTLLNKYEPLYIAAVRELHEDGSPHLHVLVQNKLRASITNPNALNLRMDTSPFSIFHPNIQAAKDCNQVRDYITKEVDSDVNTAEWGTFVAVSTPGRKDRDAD
On the procedure: as §1

Regarding CTGCGTT, the “uncleaved DNA left (log2)” value in [1] is -0.0294; in test [2] it was -0.214; in [3], -0.935; in [4] it was -0.752; in [5] it was -0.0598; in test [6] it was -1.05. The “uncleaved DNA left (log2)” value was 0.0517 in test [7], -0.232 in test [8], -0.0485 in test [9] and -0.218 in test [10].

Consider GTTGAAT, for which the “uncleaved DNA left (log2)” value in test [1] was 0.0563; in [2] it was 0.0559; in [3], 0.363; in [4] it was 0.89; in test [5], 0.0437; in test [6] it was 1.7. The “uncleaved DNA left (log2)” value turned out to be 0.00275 in test [7], 0.0585 in test [8], 0.0855 in test [9] and 0.078 in test [10].

Consider AAGCTGT, for which the “uncleaved DNA left (log2)” value in [1] was found to be 0.147; in test [2] it was 0.108; in test [3], 0.466; in test [4], 1.69; in test [5], 0.101; in [6], 1.9. Moreover, the “uncleaved DNA left (log2)” value in [7] is 0.152; in test [8] it was 0.297; in test [9], -0.126; in [10], 0.162.

For ACCTTAC, the “uncleaved DNA left (log2)” value is 0.00267 in test [1]; 0.00624 in test [2]; -0.412 in test [3]; -2.08 in [4]; 0.111 in [5]; -1.13 in [6]. Further, the “uncleaved DNA left (log2)” value in test [7] was -0.0164; in [8], -0.0721; in test [9], -0.0941; in [10], -0.00803.

On to ACACCTT, for which the “uncleaved DNA left (log2)” value is 0.112 in test [1]; 0.0246 in test [2]; -0.121 in test [3]; -2.15 in test [4]; -0.0896 in [5]; -0.388 in test [6]. Moreover, the “uncleaved DNA left (log2)” value was -0.167 in test [7], 0.0751 in test [8], -0.0506 in test [9] and -0.0495 in test [10].

AATTATT: the “uncleaved DNA left (log2)” value in test [1] is -3.85; in test [2], -4.43; in [3], -4.01; in test [4], -3.93; in [5], -3.88; in [6], -2.6. The “uncleaved DNA left (log2)” value was -4.64 in test [7], -3.59 in test [8], -0.15 in test [9] and -3.71 in [10].

As to TAGAACA, the “uncleaved DNA left (log2)” value in test [1] was -0.0236; in test [2], -0.0811; in test [3], -0.235; in test [4], -2.09; in test [5], -0.101; in test [6], -0.091. Besides, the “uncleaved DNA left (log2)” value is -2.22 in test [7], -0.0364 in [8], 0.0399 in test [9] and 0.0493 in test [10].

AAGTGGA: the “uncleaved DNA left (log2)” value is -0.0679 in [1]; -0.0427 in test [2]; 0.0714 in test [3]; 0.28 in [4]; -0.0811 in test [5]; 0.274 in [6]. Also, the “uncleaved DNA left (log2)” value in test [7] was -2.53; in test [8] it was 0.026; in test [9], -0.158; in test [10], -0.19.

In the case of AGAGGCG, the “uncleaved DNA left (log2)” value in test [1] was 0.0422; in test [2] it was 0.0122; in test [3], -0.717; in test [4], -0.107; in test [5] it was 0.125; in test [6], -0.588. The “uncleaved DNA left (log2)” value is 0.213 in test [7], 0.0515 in test [8], 0.0527 in test [9] and -0.0149 in test [10].

As for TAGCTAA, the “uncleaved DNA left (log2)” value in test [1] is -0.01; in [2], 0.031; in test [3] it was 0.0536; in test [4], -0.822; in [5] it was 0.0261; in test [6] it was -0.0412. The “uncleaved DNA left (log2)” value in test [7] was -0.529; in test [8], 0.0515; in test [9], 0.0128; in test [10], 0.0644.

For TATTACG, the “uncleaved DNA left (log2)” value is -0.36 in [1]; -0.0739 in [2]; -0.975 in test [3]; -1.11 in [4]; -0.0897 in [5]; -1.39 in test [6]. For the same sequence, the “uncleaved DNA left (log2)” value was -2.23 in test [7], -0.135 in test [8], -0.0433 in [9] and -0.0846 in test [10].

With CAGCCAT, the “uncleaved DNA left (log2)” value in [1] is -0.048; in [2], -0.062; in test [3] it was -0.0394; in test [4] it was -0.838; in test [5], -0.164; in test [6], -0.0731. Besides, the “uncleaved DNA left (log2)” value is -1.07 in [7], 0.071 in test [8], 0.0579 in test [9] and -0.0581 in test [10].

For TTACTCG, the “uncleaved DNA left (log2)” value in test [1] was 0.101; in [2] it was 0.00624; in [3], -0.963; in [4] it was -1.74; in test [5], 0.0305; in [6], -1.32. Further, the “uncleaved DNA left (log2)” value in [7] is 0.0444; in test [8], -0.0243; in test [9], 0.0109; in test [10], 0.0202.

Consider GGTTTCA, for which the “uncleaved DNA left (log2)” value was 0.0929 in test [1]; 0.185 in [2]; 0.461 in test [3]; 1.02 in test [4]; 0.0797 in [5]; 1.85 in [6]. Also, the “uncleaved DNA left (log2)” value was found to be 0.161 in [7], 0.115 in [8], 0.239 in test [9] and 0.23 in [10].

For CAGGCCT, the “uncleaved DNA left (log2)” value is 0.0497 in test [1]; -0.052 in test [2]; -0.098 in test [3]; -1.25 in [4]; -0.00724 in [5]; 0.277 in test [6]. For the same sequence, the “uncleaved DNA left (log2)” value in test [7] is -1.66; in [8], 0.0318; in [9] it was -0.0376; in test [10] it was -0.0491.
